Assay results reported in the supplement of paper PMC8728848.
The other results are listed elsewhere or left out.

Assays:
Assay in all cases: glycan array binding signal (z-score within array); higher = stronger binding
Settings in all cases: glycan notation: IUPAC condensed, linker removed
[1] = target: Neu5Ac(a2-3)Gal(b1-4)GlcNAc(b1-2)Man(a1-3)[Neu5Ac(a2-3)Gal(b1-4)GlcNAc(b1-2)Man(a1-6)]Man(b1-4)GlcNAc(b1-4)GlcNAc
Outline: (§1)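 Glycan array data came from 3228 arrays in the Consortium for Functional Glycomics database, and only arrays with an available protein sequence were kept. Glycan names were put into IUPAC-condensed notation, and columns mapping to the same glycan were averaged. The binding signal is a within-array Z-score, averaged across arrays of one protein sequence run at different concentrations or buffers and across linkers. A negative Z-score can be read as non-binding.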

[2] = target: Neu5Ac(a2-3)Gal(b1-4)GlcNAc(b1-2)Man(a1-3)[Neu5Ac(a2-3)Gal(b1-4)GlcNAc(b1-2)Man(a1-6)]Man(b1-4)GlcNAc(b1-4)[Fuc(a1-6)]GlcNAc
Outline: as §1

[3] = target: Neu5Ac(a2-3)Gal(b1-4)GlcNAc(b1-2)Man(a1-3)[Neu5Ac(a2-6)Gal(b1-4)GlcNAc(b1-2)Man(a1-6)]Man(b1-4)GlcNAc(b1-4)GlcNAc
Outline: as §1

[4] = target: Neu5Ac(a2-3)Gal(b1-4)GlcNAc(b1-2)[Neu5Ac(a2-3)Gal(b1-4)GlcNAc(b1-4)]Man(a1-3)[GlcNAc(b1-4)][Neu5Ac(a2-3)Gal(b1-4)GlcNAc(b1-2)[Neu5Ac(a2-3)Gal(b1-4)GlcNAc(b1-6)]Man(a1-6)]Man(b1-4)GlcNAc(b1-4)GlcNAc
Outline: as §1

[5] = target: Neu5Ac(a2-3)Gal(b1-4)GlcNAc(b1-2)[Neu5Ac(a2-3)Gal(b1-4)GlcNAc(b1-4)]Man(a1-3)[GlcNAc(b1-4)][Neu5Ac(a2-3)Gal(b1-4)GlcNAc(b1-4)Man(a1-6)]Man(b1-4)GlcNAc(b1-4)GlcNAc
Outline: as §1

[6] = target: Neu5Ac(a2-3)Gal(b1-4)GlcNAc(b1-2)[Neu5Ac(a2-3)Gal(b1-4)GlcNAc(b1-6)]Man(a1-6)[Neu5Ac(a2-3)Gal(b1-4)GlcNAc(b1-2)Man(a1-3)]Man(b1-4)GlcNAc(b1-4)GlcNAc
Outline: as §1

[7] = target: Neu5Ac(a2-3)Gal(b1-4)GlcNAc(b1-2)[Neu5Ac(a2-3)Gal(b1-4)GlcNAc(b1-6)]Man(a1-6)[Neu5Ac(a2-3)Gal(b1-4)GlcNAc(b1-2)Man(a1-3)][GlcNAc(b1-4)]Man(b1-4)GlcNAc(b1-4)GlcNAc
Outline: as §1

[8] = target: Neu5Ac(a2-3)Gal(b1-4)GlcNAc(b1-3)Gal
Outline: as §1

[9] = target: Neu5Ac(a2-3)Gal(b1-4)GlcNAc(b1-3)Gal(b1-3)GlcNAc
Outline: as §1

[10] = target: Neu5Ac(a2-3)Gal(b1-4)GlcNAc(b1-3)Gal(b1-4)GlcNAc
Outline: as §1

[11] = target: Neu5Ac(a2-3)Gal(b1-4)GlcNAc(b1-3)Gal(b1-4)GlcNAc(b1-2)Man(a1-3)[Neu5Ac(a2-3)Gal(b1-4)GlcNAc(b1-3)Gal(b1-4)GlcNAc(b1-2)Man(a1-6)]Man(b1-4)GlcNAc(b1-4)GlcNAc
Outline: as §1

[12] = target: Neu5Ac(a2-3)Gal(b1-4)GlcNAc(b1-3)Gal(b1-4)GlcNAc(b1-3)Gal(b1-4)GlcNAc
Outline: as §1

[13] = target: Neu5Ac(a2-3)Gal(b1-4)GlcNAc(b1-3)Gal(b1-4)GlcNAc(b1-3)Gal(b1-4)GlcNAc(b1-2)Man(a1-3)[Neu5Ac(a2-3)Gal(b1-4)GlcNAc(b1-3)Gal(b1-4)GlcNAc(b1-3)Gal(b1-4)GlcNAc(b1-2)Man(a1-6)]GalNAc
Outline: as §1

[14] = target: Neu5Ac(a2-3)Gal(b1-4)GlcNAc(b1-3)Gal(b1-4)GlcNAc(b1-3)GalNAc
Outline: as §1

[15] = target: Neu5Ac(a2-3)Gal(b1-4)GlcNAc(b1-3)Gal(b1-4)GlcNAc(b1-3)[Neu5Ac(a2-3)Gal(b1-4)GlcNAc(b1-3)Gal(b1-4)GlcNAc(b1-6)]GalNAc
Outline: as §1

[16] = target: Neu5Ac(a2-3)Gal(b1-4)GlcNAc(b1-3)Gal(b1-4)GlcNAc(b1-6)[Gal(b1-3)]GalNAc
Outline: as §1

[17] = target: Neu5Ac(a2-3)Gal(b1-4)GlcNAc(b1-3)Gal(b1-4)[Fuc(a1-3)]GlcNAc
Outline: as §1

[18] = target: Neu5Ac(a2-3)Gal(b1-4)GlcNAc(b1-3)GalNAc
Outline: as §1

[19] = target: Neu5Ac(a2-3)Gal(b1-4)GlcNAc(b1-3)[Neu5Ac(a2-3)Gal(b1-4)GlcNAc(b1-6)]GalNAc
Outline: as §1

[20] = target: Neu5Ac(a2-3)Gal(b1-4)GlcNAc(b1-6)GalNAc
Outline: as §1

[21] = target: Neu5Ac(a2-3)Gal(b1-4)GlcNAc(b1-6)[Gal(b1-3)]GalNAc
Outline: as §1

[22] = target: Neu5Ac(a2-3)Gal(b1-4)GlcNAc(b1-6)[Neu5Ac(a2-3)Gal(b1-3)]GalNAc
Outline: as §1

[23] = target: Neu5Ac(a2-3)Gal(b1-4)GlcNAc6S
Outline: as §1

[24] = target: Neu5Ac(a2-3)Gal(b1-4)[Fuc(a1-3)]GlcNAc
Outline: as §1

[25] = target: Neu5Ac(a2-3)Gal(b1-4)[Fuc(a1-3)]GlcNAc(b1-2)Man
Outline: as §1

[26] = target: Neu5Ac(a2-3)Gal(b1-4)[Fuc(a1-3)]GlcNAc(b1-3)Gal
Outline: as §1

[27] = target: Neu5Ac(a2-3)Gal(b1-4)[Fuc(a1-3)]GlcNAc(b1-3)Gal(b1-4)GlcNAc
Outline: as §1

[28] = target: Neu5Ac(a2-3)Gal(b1-4)[Fuc(a1-3)]GlcNAc(b1-3)Gal(b1-4)[Fuc(a1-3)]GlcNAc(b1-3)Gal(b1-4)[Fuc(a1-3)]GlcNAc
Outline: as §1

[29] = target: Neu5Ac(a2-3)Gal(b1-4)[Fuc(a1-3)]GlcNAc(b1-3)GalNAc
Outline: as §1

[30] = target: Neu5Ac(a2-3)Gal(b1-4)[Fuc(a1-3)]GlcNAc(b1-6)[Gal(b1-3)]GalNAc
Outline: as §1

[31] = target: Neu5Ac(a2-3)Gal(b1-4)[Fuc(a1-3)]GlcNAc(b1-6)[Neu5Ac(a2-3)Gal(b1-3)]GalNAc
Outline: as §1

[32] = target: Neu5Ac(a2-3)Gal(b1-4)[Fuc(a1-3)]GlcNAc6S
Outline: as §1

[33] = target: Neu5Ac(a2-3)Gal6S(b1-4)GlcNAc
Outline: as §1

[34] = target: Neu5Ac(a2-3)Gal6S(b1-4)[Fuc(a1-3)]GlcNAc
Outline: as §1

Neu5Ac(a2-3)GalNAc = target: Neu5Ac(a2-3)GalNAc
Outline: as §1

[35] = target: Neu5Ac(a2-3)GalNAc(b1-4)GlcNAc
Outline: as §1

[36] = target: Neu5Ac(a2-3)[GalNAc(b1-4)]Gal(b1-4)Glc
Outline: as §1

[37] = target: Neu5Ac(a2-3)[GalNAc(b1-4)]Gal(b1-4)GlcNAc
Outline: as §1

B1: DBA (Dolichos biflorus) (protein)
chain: ANIQSFSFKNFNSPSFILQGDATVSSGKLQLTKVKENGFPLRFPSGRAFYSSPIQIYDKFTGAVASWATSFTVKISAPSKASFADGIAFALVPVGSEPRRNGGYLGVFDSDVYNNSAQTVAVEFDTLSNSGWDPSMKHIGIDVNSIKSIATVSWDLANGENAEILITYNAATSLLVVSLVHPSRRTSYILSERVDITNELPEYVGVGFSATTGLSEGYIETHDVLSWSFASRLPDDSTAEPLDLARYLVRNVL
[1]
  glycan array binding signal (z-score): -0.109
[2]
  glycan array binding signal (z-score): -0.148
[3]
  glycan array binding signal (z-score): -0.165
[4]
  glycan array binding signal (z-score): -0.098
[5]
  glycan array binding signal (z-score): -0.126
[6]
  glycan array binding signal (z-score): -0.121
[7]
  glycan array binding signal (z-score): -0.187
[8]
  glycan array binding signal (z-score): -0.214
[9]
  glycan array binding signal (z-score): -0.146
[10]
  glycan array binding signal (z-score): -0.135
[11]
  glycan array binding signal (z-score): 0.143
[12]
  glycan array binding signal (z-score): -0.122
[13]
  glycan array binding signal (z-score): 0.264
[14]
  glycan array binding signal (z-score): -0.107
[15]
  glycan array binding signal (z-score): -0.058
[16]
  glycan array binding signal (z-score): 0.048
[17]
  glycan array binding signal (z-score): -0.141
[18]
  glycan array binding signal (z-score): -0.144
[19]
  glycan array binding signal (z-score): -0.094
[20]
  glycan array binding signal (z-score): -0.064
[21]
  glycan array binding signal (z-score): -0.109
[22]
  glycan array binding signal (z-score): -0.106
[23]
  glycan array binding signal (z-score): -0.156
[24]
  glycan array binding signal (z-score): -0.134
[25]
  glycan array binding signal (z-score): -0.089
[26]
  glycan array binding signal (z-score): -0.146
[27]
  glycan array binding signal (z-score): -0.118
[28]
  glycan array binding signal (z-score): -0.125
[29]
  glycan array binding signal (z-score): -0.015
[30]
  glycan array binding signal (z-score): -0.032
[31]
  glycan array binding signal (z-score): 0.124
[32]
  glycan array binding signal (z-score): -0.112
[33]
  glycan array binding signal (z-score): -0.135
[34]
  glycan array binding signal (z-score): -0.13
Neu5Ac(a2-3)GalNAc
  glycan array binding signal (z-score): -0.165
[35]
  glycan array binding signal (z-score): -0.125
[36]
  glycan array binding signal (z-score): 4.19
[37]
  glycan array binding signal (z-score): 3.09
